The supplement of paper PMC10126150
Sequences with one replicate were seen in a single cluster, so their values are uncertain.

Test system: ATP
Assay: switch fluorescence ratio, 500 uM ATP over buffer (Cy3 cluster intensity, sum of 5 cycles each) (fold (ratio)); higher = stronger signal-on switching upon ATP binding; sequences stand for … in TCGTCGGCAGCGTCAGATGTGTATAAGAGACAGTTTTTTTTTTTTTTTTTTTTTTTTT…TC
Conditions: aptamer strand: ATP DNA aptamer (quencher-CACCTGGGGGAGTATTGCGGAGGAAGG + anchor), 100 nM annealed; ATP concentration: 500 uM; one replicate
Method in brief: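 Clusters with intensities outside 100-1000 RFU were excluded. The remaining Cy3-labelled switching-strand clusters on a modified Illumina MiSeq flow-cell had been annealed to 100 nM quencher-labelled ATP aptamer and imaged in selection buffer, then after 15 min with 500 uM ATP at 22 °C, for five cycles separated by NaOH stripping and re-annealing. The fluorescence ratio, averaged per switch-domain sequence, is each cluster's summed target-cycle Cy3 intensity over its summed buffer-cycle Cy3 intensity.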
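Further: ATP exposure 15 min at 22 °C before imaging.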

Sequence	switch fluorescence ratio
ATTCCGGCCA	1.09
TTGCTTGATT	1.01
TTATAAACAA	1.02
CGCCGGGCCT	1.04
CAGTGAAGAT	0.969
AGCGTGGGAG	1.03
CCTTCGGGTA	1.55
CAACTTCGTA	0.989
GCTCGCCCAG	3.54
CTGGGGAGAA	0.996
GTATCGACTT	0.972
TCGTTCAGGT	0.98
TAGCGATGAT	1.02
GAGTTATACC	0.996
GGTGAGTGTC	1.01
CGTACGGGAA	1.01
TGGAGTTGCG	1.01
TTAATCTATT	1.05
GGGTTGTGTC	0.892
CGTTTCGGCG	0.943
ATAGTATAGT	0.975
TAAGGGTAGC	1.06
TCGACTAAGT	1.01
TTATAAGGGT	0.986
CTCACGCCCT	1.31

Sequence	switch fluorescence ratio
TCCTGACTGA	1.06
TCCTT	0.987
CTTTAAGGCT	0.99
ACGATAATCA	1.07
ACTGGTTTCG	1.01
TTTAGATCGC	1.01
ATTGCCCATA	1
TAGTGAACGT	1.02
ACTGGGAAGG	1.01
CCCACAAACT	1.31
TGGTCAAAA	0.993
CCCAGACGGA	0.987
CATTGAAGTC	0.944
GTCAAACAAG	0.983
TATCGTCCTG	0.997
AATCGGGGGC	0.998
TATAGGTAGC	0.968
GCAGTATAGG	1
TCCCGAAGTC	1.2
ATACACCTGC	1.09
TAAAGCCAGC	0.95
GGGTTAGTCA	0.956
ACATCAGTGG	1.03
CGACTGGGTT	1
ATCCTGGGTC	1.06

Sequence	switch fluorescence ratio
CCAGGTTGGG	1.09
AATATCCACG	1.03
AAGGTTCTAT	1.03
GACGTCTGGA	0.994
TCATCGTGTA	0.996
TAAGTTTAAT	0.967
GGGACGATTC	0.992
GGACATGAAT	1.05
CTGGGAAGGT	1.03
AGTTAATACC	1.04
ATTGATGTCT	0.988
CGAGTGCCGT	0.955
TTTCTGGAAA	1.04
TCCATGGTGT	1.7
GTCAGTATGG	0.962
CCTGGAAGTA	1
AGACGCTTAT	1.18
TGCACAGAAG	1.02
GGCACGGGGT	1.02
TGGTCACCAT	0.996
TTCTGGGAAG	0.989
GTTATGGACT	1.03
AGGTGACAAT	0.995
TTTTCGTAAC	1.01
GGCTGACACG	0.948

Sequence	switch fluorescence ratio
TGTAGCGCGG	0.985
ATATTGCGCT	1
CTTGTAAGAC	2
TGAAGGAACA	1.04
ATCTTGGGAG	0.976
CGCTATCTTT	1.04
AAACGTGCGC	1.03
TACTGCAACA	1.5
ACTTTAACGA	1.13
AGAACTGTAC	1.61
CCGGTACGTA	1.01
TACGACACAG	1.1
AATGGCCTGC	0.967
GCTAGTACAA	1.03
GGTCAGCGCG	0.979
CAAATTCGTG	0.969
ACCCCAGAT	1.2
TCTTTGGAAG	1.4
GGGCTACGCT	0.99
CATTTTCGAG	0.964
AGGAGTTAGC	0.968
GTTGGCCGCT	1.01
GCGAAATCCT	1.13
CGGCGGAAGG	1.02
GCAAGTCAGT	1.03

Sequence	switch fluorescence ratio
GTGACCACCT	1.07
GTTACCTTAA	1.1
GCCTGCTTGG	0.974
GACCGTATGA	1.09
TGTCGGTGGC	1.09
TTTTGGTCAG	1.01
GTTGATCCGG	1.03
TTGGCCTGAA	1.04
GGACCCGGGC	1.07
GGACGCGTGC	1.14
ACTCTCCGAG	1.02
CTCAGGTAAC	1.14
GAGAGGGCGC	0.97
TTGAAGGTCC	1.06
CGCTCTGCGG	1.07
GATACTGAGT	0.985
TATTTAAACT	1.02
GTTAGGGATT	1.02
CTCAACCGGT	0.989
TTATCAGTA	0.973
AGCGAGCAGG	1.14
CCAATGATCG	0.998
GCTGTCCCCA	0.984
GCTAAGTATC	1.02
GAACCCCGTC	1.21

Sequence	switch fluorescence ratio
AAAATCGGCT	0.947
TCTTAATAAG	1
CATAGCTAGA	1.05
TAGTCATGG	1.02
AGTAGTAGGC	1
CGCATGTCAC	2.82
TGGTTGACTA	0.961
TCTTCGTGTT	0.957
TGGGGCAGAA	0.993
TGTTTTTTT	0.973
GGAACTATGG	0.976
TCCAACAGGC	1.17
TTGAAAGGTT	0.989
GATGCTTGTC	1.02
ACTATGTGTT	1.01
TGACCTTTA	1.06
TCGAAAGTTG	1.06
AGATCTTTCT	1.01
TCTGCGGTGG	1.39
CCGAGCCTTA	1.3
ATGTCTTTAG	0.981
GTGGAGTGGA	0.992
GTTAGTTGCA	0.947
AGCTCTTTGC	1.01
CTCACGCGCT	1.2

Sequence	switch fluorescence ratio
TCTTTTAGCA	1.01
CTTCGCTTA	2.29
GCCCACAAGG	1.11
CGACGATAGA	1.15
CGCTGCTTCA	1.05
ATCACAACCT	1.71
TATACACTTG	1.07
ACTTCCTTCG	5.24
TTTCGCCCGT	1
GCATGCCAGG	1.02
AGAGCTACTT	1
CTGGCGTGAT	1.06
GGGTCGCAAG	0.966
ACTTGGGGTT	1.02
TCAAGTTCGG	0.988
GTCGCAATTT	2.18
TGTCTTTGCG	0.977
AGAATCGTAA	1.03
TAAAGTAAGG	0.993
CCCTTTTTTC	1.06
GACTTCAAAT	1.02
AGGTCAATA	0.968
ACGCTAGGAA	1.16
TTAAGACGAC	1.28
CCAGACCCTA	1.06

Sequence	switch fluorescence ratio
CCCGGAGATG	1.04
TTATTTCACC	0.978
AGGCGAGAAC	1.06
ATTGTTAGTG	0.982
ATCGCAACGT	1.02
ATAGGAGGGG	0.998
ATGCAGGTTT	1.01
TGTCGCGGTT	1.01
ACTTCTATTC	1.03
AGCTGGGAGC	1.04
TATAGGAGAC	0.97
AGCCGATAAA	1
GCCTCAGGTT	1.26
ATGCATCTAG	0.998
GACACGTCCA	1.03
TGTCGCGGGA	1.1
TCTGAGGAGG	1.01
TACATGTAGG	1.06
TTTGCTCCAT	1.21
CGGGCTGTGT	1
GAAGGATATA	0.959
AGACAATCT	1.02
CTCTCAGTA	0.973
GAGGCCTACC	0.959
CATTTAAGAC	1.05
